Laboratory results published in PMC4336329 (PLoS ONE, 2015).
About 2,200 (0.71%) of roughly 310,000 compounds showed an effect of 50% or more. Effects have a minus sign here. The list shows a part of the results.

biological target: human ether-à-go-go-related gene (hERG) potassium channel (human, UniProt Q12809); experiment: primary screen, population patch clamp on CHO cells stably expressing hERG
Sequence (Q12809 whole entry, looked up): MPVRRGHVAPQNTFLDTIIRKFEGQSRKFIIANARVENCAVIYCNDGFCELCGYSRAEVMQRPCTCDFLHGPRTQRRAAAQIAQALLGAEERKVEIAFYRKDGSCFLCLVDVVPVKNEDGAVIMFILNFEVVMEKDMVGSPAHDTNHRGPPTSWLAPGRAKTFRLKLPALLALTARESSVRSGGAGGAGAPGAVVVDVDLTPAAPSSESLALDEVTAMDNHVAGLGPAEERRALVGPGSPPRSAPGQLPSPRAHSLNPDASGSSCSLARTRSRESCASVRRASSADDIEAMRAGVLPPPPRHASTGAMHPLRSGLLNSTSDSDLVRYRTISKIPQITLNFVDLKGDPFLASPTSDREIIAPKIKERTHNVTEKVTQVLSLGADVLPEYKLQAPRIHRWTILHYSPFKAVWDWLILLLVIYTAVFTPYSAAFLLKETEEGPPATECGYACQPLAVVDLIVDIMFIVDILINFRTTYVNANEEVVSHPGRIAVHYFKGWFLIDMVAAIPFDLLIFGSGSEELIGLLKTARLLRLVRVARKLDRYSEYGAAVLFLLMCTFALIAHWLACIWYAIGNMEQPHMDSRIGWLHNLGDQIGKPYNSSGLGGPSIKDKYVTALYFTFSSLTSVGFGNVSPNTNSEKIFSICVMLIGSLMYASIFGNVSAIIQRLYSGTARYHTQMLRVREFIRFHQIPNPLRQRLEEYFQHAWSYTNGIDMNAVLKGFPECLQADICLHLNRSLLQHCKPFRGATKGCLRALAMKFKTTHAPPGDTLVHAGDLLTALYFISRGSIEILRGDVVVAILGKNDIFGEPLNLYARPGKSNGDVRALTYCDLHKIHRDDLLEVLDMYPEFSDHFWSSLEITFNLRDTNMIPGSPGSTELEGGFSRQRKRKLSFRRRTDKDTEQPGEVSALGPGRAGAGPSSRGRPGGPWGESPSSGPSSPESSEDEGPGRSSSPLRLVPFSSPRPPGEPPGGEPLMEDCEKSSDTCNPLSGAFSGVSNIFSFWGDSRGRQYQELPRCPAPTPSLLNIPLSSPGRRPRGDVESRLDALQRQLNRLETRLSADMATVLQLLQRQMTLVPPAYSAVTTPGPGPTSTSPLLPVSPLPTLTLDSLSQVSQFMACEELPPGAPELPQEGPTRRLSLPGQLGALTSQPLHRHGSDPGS

SMILES	hERG current change (%, negative = inhibition) at 1uM
CCOC(=O)C(NCc1ccccc1OC)(NC(C)=O)C(F)(F)F (stereo not drawn)	18.2%
COc1ccc(Nc2nc(-c3ccccc3)c3ccccc3n2)cc1	2.9%
CCCCNC(=O)Oc1cccc(N2CCCC2=O)c1	10.4%
CC(=O)c1ccc(N=Cc2c(O)n(-c3cc(Cl)ccc3N3CCOCC3)c(=O)c3ccccc23)cc1	13%
O=C(C1CCCN(S(=O)(=O)c2ccc(F)cc2)C1)N(Cc1cccs1)C1CC1 (stereo not drawn)	5.65%
C/C(=N\O)C1(C)N(O)C(C)(C)C(c2ccc(Br)cc2)=[N+]1[O-] (stereo not drawn)	7.33%
Cc1c(-c2ccc(F)cc2)nc(N)c(C#N)c1-c1cccs1	-1.93%
COc1ccc(CCC(=O)NNC(=O)Nc2ccc(OC)c(OC)c2)cc1	6.62%
COc1ccccc1/C=C/C(=O)NC(=S)Nc1ccccn1	18.9%
CCOC(=O)c1[nH]c2ccccc2c1NC(=O)CC(C)(C)C	0.705%
CCOc1cc(CNn2nnnc2N)ccc1OCC(=O)NC(C)(C)C	5.71%
COC(=O)c1ccc(N(CC(=O)NC2CCCC2)C(=O)CNC(=O)c2cccs2)cc1	9.62%
O=C(Nc1ccc2[nH]ccc2c1)c1ccc(F)cc1	11%
CCCc1cc(=O)[nH]c(SCCOc2ccc(Cl)cc2)n1	11.9%
O=C1CN(C(=O)COC(=O)CCCOc2ccccc2)c2ccccc2N1	1.08%
COc1ccc(CNC(=O)[C@H](C)NC(=O)C2CC(=O)N(c3ccc4c(c3)OCO4)C2)cc1 (stereo partly drawn)	15.9%
O=C1Nc2ccccc2/C1=C/c1cnc(-c2ccccc2)[nH]1	20.1%
COc1cc2c(cc1OC)CN(c1ccc3ccccc3n1)CC2	15.9%
CC(C)CCn1cnc2c(cnn2-c2ccc(Cl)cc2)c1=O	6.99%
Cc1ccc(-c2csc(NC(=O)c3ccc(S(=O)(=O)N4CCc5ccccc54)cc3)n2)cc1	14.3%
O=C(NNC(=O)c1sccc1-n1cccc1)c1cccc(Cl)c1	6.74%
COc1ccc(CCN(C)CC(O)COc2ccc(C(C)=O)cc2OC)cc1OC (stereo not drawn)	8.67%

SMILES	hERG current change (%, negative = inhibition) at 1uM
CCc1ccc(Cn2nnc(C(=O)Nc3cccc(C)c3)c2N)cc1	8.33%
Cc1ccsc1C=Nc1c(C)n(C)n(-c2ccccc2)c1=O	12.9%
O=C(CN1C(=O)c2ccccc2S1(=O)=O)NCc1cccnc1	4.24%
CCOC(=O)c1cc(S(=O)(=O)N2CCN(C3CCCCC3)CC2)cn1C	11.3%
COc1ccc(-c2nc3cccc(C)n3c2NCC2CCCO2)cc1O.Cl (stereo not drawn)	-6.9%
Cc1nnc2sc(SCc3ccc(Cl)cc3)nn2c1=O	10.8%
CCCCN(C(=O)Nc1ccccc1)C1CCS(=O)(=O)C1 (stereo not drawn)	-0.108%
Cc1cccc(Nc2nc(Cl)ncc2F)c1C	7.49%
Cc1ccc(NC(=O)CCC(=O)c2cccs2)cc1F	5.24%
Cn1c(SCC(=O)NC2CCCC2)nnc1-c1cccs1	13%
COc1ccccc1-n1c(O)c(C=Nc2c(C)n(C)n(-c3ccccc3)c2=O)c(=O)[nH]c1=O	6.76%
CCOC(=O)N1CCC(Nc2c(NCCCOC)c(=O)c2=O)CC1	4.31%
CCCN(C(=O)Cc1csc(-c2ccccc2)n1)C1CCS(=O)(=O)C1 (stereo not drawn)	0.515%
CCCCNCCOCCOc1ccc(C)cc1[N+](=O)[O-].O=C(O)C(=O)O	2.88%
COc1cccc(NC(=O)CNc2cc(S(=O)(=O)N3CCOCC3)ccc2N2CCCC2)c1	13%
COc1ccccc1CNC(=O)CC12CC3CC(CC(Br)(C3)C1)C2	12.8%
O=C(Nc1ccc(Nc2ccccc2)cc1)C(Cl)(Cl)Cl	7.95%
O=C1CN(C(=O)N[C@@H](Cc2ccccc2)C(=O)N[C@@H](Cc2ccccc2)C(=O)O)c2ccccc2N1	6.94%
COc1cc(NC(=O)C2CCCC2)c(OC)cc1Cl	-0.316%
Cc1ccc(N=Cc2c(O)n(-c3nccs3)c(=O)c3ccccc23)c(C)c1	-1.41%
Cc1ccc(SCCNC(=O)/C=C/c2ccccc2Cl)cc1	11%
Cc1ccn2c(NC(=O)c3ccccc3)c(-c3ccccc3)nc2c1	5.85%

SMILES	hERG current change (%, negative = inhibition) at 1uM
CCC(=O)N1CCc2cc(S(=O)(=O)CCC(=O)NCc3cccc(OC)c3)ccc21	14.9%
COc1ccccc1C(=O)Nc1nc2nc(-c3ccccc3)cc(=O)n2[nH]1	6.43%
O=C(Cn1nnc(-c2ccccc2Cl)n1)NCc1ccc2c(c1)OCO2	7%
CCN1C(=O)/C(=C/C=C2\C=CN(CC)c3ccccc32)SC1=S	3.78%
O=C(CCc1nnc(COc2ccccc2)o1)NC1(c2ccccc2)CC1	6.97%
Cn1c(SCC(=O)Nc2ccccc2F)nnc1C1CCCCC1	11.1%
COC(=O)C1CSc2[nH]c(=O)sc2C1c1ccccc1 (stereo not drawn)	-6.76%
O=C(COC(=O)c1ccc(S(=O)(=O)NCc2ccco2)cc1)Nc1ccc(Cl)cn1	19.3%
Cc1c(Cl)cccc1N(CC(=O)N1CCCCCC1)S(C)(=O)=O	7.71%
CC(=O)c1sc2nc(CSc3nnnn3-c3ccccc3)[nH]c(=O)c2c1C	7.38%
COCCN(C(=O)CSc1nc2ccc(C)cc2[nH]1)c1c(N)n(Cc2ccccc2)c(=O)[nH]c1=O	15.5%
Cc1cc(C)nc(NS(=O)(=O)c2ccc(NC(=S)NC(=O)CC(C)C)cc2)n1	5.67%
CCn1c2ccccc2c2cc(NC(=O)c3ccc(=O)oc3)ccc21	11.5%
COc1ccc(Cn2nnc(C(=O)Nc3ccc4c(c3)OCCO4)c2N)cc1Br	1.32%
Cc1cc(-c2ccccc2)c2c(=O)[nH][nH]c2n1	20.6%
O=C(O)CCCC(=O)Nc1ccc(Cl)c(Cl)c1	13.1%
Cc1ccc(NS(=O)(=O)c2cccc(C(=O)NNC(=O)c3cccn3C)c2)c(C)c1	8.39%
CCN(C(=O)C1CCCN(c2ncnc3c2nc2n3CCCCC2)C1)c1cccc(Cl)c1 (stereo not drawn)	5.63%
Cc1cc(C(=O)Cn2nc(C(=O)O)c3ccccc3c2=O)c(C)n1-c1ccc(F)cc1	10.5%
Cc1ccccc1Cn1nc(C)c(NC(=O)c2cc(-c3cccs3)on2)c1C	7.98%
CCOC(=O)c1c(NC(=O)CC(C)C)sc(C(C)=O)c1C	8.11%
CC1(C)Cc2nc3sc(C(=O)NCCO)c(N)c3cc2CO1	-11.7%

SMILES	hERG current change (%, negative = inhibition) at 1uM
CCOC(=O)C(C)Oc1cccc2c(=O)n(CC(=O)NCc3ccccc3)ccc12 (stereo not drawn)	8.81%
CCOC(=O)c1c(-c2ccc(C)o2)csc1NC(=S)NC(=O)c1ccccc1Br	15.7%
Cl.c1ccc2c(Nc3ccc4c(c3)OCCO4)c3c(nc2c1)CCC3	-13.9%
O=C1NC(=Nc2ccccc2Cl)S/C1=C\c1cccc([N+](=O)[O-])c1O	13.3%
O=C(CN1CCN(S(=O)(=O)c2ccccc2)CC1)Nc1ccccc1C(=O)c1ccccc1	-2.35%
Cn1nc(C(=O)OCc2ccccc2F)c2ccccc2c1=O	13.8%
CC(C)(C)c1cc(NC(=O)Nc2ccc(Br)cc2Cl)no1	11.9%
CC(C)Cn1c(SCC(=O)N2CCN(C(=O)c3ccco3)CC2)nc2ccccc2c1=O	-42.9%
CCc1ccccc1NC(=O)Nc1cccn(Cc2ccccc2F)c1=O	6.57%
COc1ccc2c(c1)C(c1ccc(Cl)cc1)NC(=O)C2 (stereo not drawn)	5.97%
N#C/C(Cn1c[n+](NC(=O)Nc2ccccc2)cn1)=N/O.[Cl-]	14.5%
O=C(Cn1ncc2c([nH]c3ccccc32)c1=O)NCC1CCN(Cc2ccc(F)cc2)CC1	-5.39%
O=C(O)c1[nH]c2ccccc2c1C(c1ccccc1)c1c(C(=O)O)[nH]c2ccccc12	14.3%
Cc1cccc(CCNCc2cc3ccc(C)cc3[nH]c2=O)c1	-54.6%
COc1ccc(/C=N\NC(=O)c2cccc(Br)c2)c(OC)c1	9.82%
COc1ccc2[nH]c(=O)c(CN(C(=O)c3ccccn3)c3ccccc3)cc2c1	16.6%
CC1(C)Cc2c(c(N3CCOCC3)nc3snc(N)c23)CO1	7.63%
CC(=O)Nc1cccc(C(=O)NC(C)c2ccc(-n3ccnc3)cc2)c1 (stereo not drawn)	8.8%
Cc1occc1-c1nnc(SCC(=O)N2CCCCC2C)o1 (stereo not drawn)	0.883%
CCOC(=O)c1c(C)nc2sc3c(=O)n(-c4ccc(C(C)=O)cc4)nnc3c2c1-c1ccc(OC)cc1	11.7%
O=C(CSc1n[nH]c(-c2cccs2)n1)N1CCCc2ccccc21	-2.14%
